{
  "source": "patent US11866509B2",
  "about": "“Humanized antibodies against CEACAM1” (Famewave Ltd., priority 2014, dated 2024)",
  "molecules": {"B1": {"name": "CM-24: back-mutated humanized IgG4 anti human CEACAM1 monoclonal antibody; light chain SEQ ID NO: 52, heavy chain SEQ ID NO: 53 (antibody)", "heavy": "QVQLVQSGAEVKKPGASVKVSCKASGYAFTNNLIEWVRQAPGQGLEWIGVINPGSGDTNYNEKFKGRVTMTADKSISTAYMELSRLRSDDTAVYYCARGDYYGGFAVDYWGQGTTVTVSSASTKGPSVFPLAPCSRSTSESTAALGCLVKDYFPEPVTVSWNSGALTSGVHTFPAVLQSSGLYSLSSVVTVPSSSLGTKTYTCNVDHKPSNTKVDKRV[letters of human IgG4 Fc with S228P (EU numbers) left out]", "light": "DIQMTQSPSSLSASVGDRVTITCRTSQDIGNYLNWYQQKPGKAVKLLIYYTSRLHSGVPSRFSGSGSGTDYTLTISSLQPEDIATYFCQQGKSLPRTFGGGTKVEIKRTVAAPSVFIFPPSDEQLKSGTASVVCLLNNFYPREAKVQWKVDNALQSGNSQESVTEQDSKDSTYSLSSTLTLSKADYEKHKVYACEVTHQGLSSPVTKSFNRGEC"}},
  "key": {"[1]": {"assay": "6 week GLP repeat dose toxicity study", "assay_type": "in vivo", "protocol": "(§1) A 6 week repeat dose study was performed in rhesus monkeys to evaluate the toxicity and toxicokinetics of CM-24. CM-24 was administered via intravenous (IV) infusion (the intended clinical route of administration) once every two weeks for a total of 4 doses (mimicking the intended treatment cycle in oncology patients) at doses representing 2.5× (25 mg/kg) and 10× (100 mg/kg) the projected maximal dose in humans (10 mg/kg). No obvious treatment related adverse reactions, no gross or microscopic pathological findings, and no mortality were observed. Ophthalmoscopy and electrocardiography indicated no findings related to the treatment."}, "[2]": {"assay": "Toxicokinetics and anti-drug antibody evaluation in the repeat dose study", "assay_type": "in vivo, rhesus monkeys", "protocol": "as §1"}, "[3]": {"system": "Human melanoma cancer cells (MALME 3M)", "assay": "Cytotoxicity of human TIL cells (TIL14) against melanoma cells, LDH release", "assay_type": "cell-based", "settings": "for combination index (CI): 0.05-0.8 μg/ml each", "protocol": "FIG. 4 represents synergistic effects of anti-CEACAM1 and anti-PD-1 antibodies on the cytotoxicity of human TIL cells against human melanoma cells. TIL cells were incubated with various concentrations of a humanized mAb to human CEACAM1 (dashed black line, sphere marker), a mAb to human PD-1 (solid gray line, rectangular marker) or a combination of both antibodies (solid black line, triangle marker). IFN-γ-treated melanoma cells were added for an overnight incubation. Results represent an average of % cytotoxicity ±SE as determined by classical LDH release assay from triplicate wells per treatment. * P<0.05 paired T-test compared to the monoclonal antibody to human CEACAM1 only.\nFIGS. 5A-5B Synergistic effects of anti-CEACAM1 and anti-PD-1 antibodies on Granzyme B levels and the cytotoxicity of human TIL cells against human melanoma cells when anti-PD-1 antibodies are added prior to the addition of anti-CEACAM1 antibodies. Human melanoma cells were grown in the presence of IFN-ã to induce PD-L1 expression. Human TIL cells were incubated with medium only (black), non-specific IgG antibody (white), various concentrations of a monoclonal antibody to human CEACAM1 (vertical lines), a monoclonal antibody to human PD-1 (horizontal lines) or a combination of both antibodies (dots). (FIG. 5A) Results represent an average of % cytotoxicity ±SE as determined by classical LDH release assay from triplicate wells per treatment. * P≤0.05 paired T-test compared to a-PD-1 only. (FIG. 5B) Results represent Granzyme B levels ±SE as determined by commercial Granzyme B ELISA kit from triplicate wells per treatment.\nHuman melanoma cancer cells (MALME 3M) were grown in the presence of IFN-ã to induce PD-L1 expression. […] The combination index (CI) was calculated to be 0.15. In the same assay, the level of the cytotoxic protein granzyme B that is secreted upon cytotoxic cell activation was evaluated by commercial granzyme B ELISA Kit. […]"}},
  "data": [
    {"molecule": "B1", "values": [
      {"measurement": "treatment-related toxicities", "setting": "[1]; 25 and 100 mg/kg", "value": "no treatment-related toxicities at any dose level"},
      {"measurement": "No Observed Effect Level (NOEL)", "setting": "[1]; IV infusion once every two weeks, 4 doses, 25 and 100 mg/kg", "value": 100, "unit": "mg/kg"},
      {"measurement": "human equivalent dose (HED) of the NOEL", "setting": "[1]; weight-to-weight basis", "value": 100, "unit": "mg/kg"},
      {"measurement": "Cmax and AUC on Day 42 as compared to Day 0", "setting": "[2]; IV infusion once every two weeks", "value": "slight increase"},
      {"measurement": "CM-24 exposure (Cmax, AUC) versus dose", "setting": "[2]; IV infusion, 25 and 100 mg/kg", "value": "dose-proportional increase"},
      {"measurement": "anti-CM-24 antibody (ADA) response", "setting": "[2]; repeated dosing", "value": "Only a single animal in Group 2 (25 mg/kg) showed a positive anti-CM-24 antibody response"},
      {"measurement": "toxicity of human TIL cells against human cancer cells", "setting": "[3]; CM-24 with mAb to human PD-1 (clone E12.2H7), 0.005-0.25 μg/ml of each, vs each monotherapy", "value": "significantly increased the toxicity"},
      {"measurement": "combination index (CI)", "setting": "[3]; CM-24 with mAb to human PD-1 (clone E12.2H7), anti-PD-1 added first", "value": 0.15},
      {"measurement": "combination index (CI)", "setting": "[3]; CM-24 with mAb to human PD-L1 (clone 29E.2A3), anti-PD-L1 added first", "value": 0.67}
    ]}
  ]
}
